# Data reported in paper PMC4336329 (PLoS ONE, 2015).
# Among all 310,000 compounds or so, about 2,200 (0.71%) showed an effect of 50% or more. Effects have a minus sign here. Some of the results follow.
# Biological target: human ether-à-go-go-related gene (hERG) potassium channel (human, UniProt Q12809)
# Test: primary screen, population patch clamp on CHO cells stably expressing hERG
# human ether-à-go-go-related gene (hERG) potassium channel, sequence (Q12809 whole entry, looked up): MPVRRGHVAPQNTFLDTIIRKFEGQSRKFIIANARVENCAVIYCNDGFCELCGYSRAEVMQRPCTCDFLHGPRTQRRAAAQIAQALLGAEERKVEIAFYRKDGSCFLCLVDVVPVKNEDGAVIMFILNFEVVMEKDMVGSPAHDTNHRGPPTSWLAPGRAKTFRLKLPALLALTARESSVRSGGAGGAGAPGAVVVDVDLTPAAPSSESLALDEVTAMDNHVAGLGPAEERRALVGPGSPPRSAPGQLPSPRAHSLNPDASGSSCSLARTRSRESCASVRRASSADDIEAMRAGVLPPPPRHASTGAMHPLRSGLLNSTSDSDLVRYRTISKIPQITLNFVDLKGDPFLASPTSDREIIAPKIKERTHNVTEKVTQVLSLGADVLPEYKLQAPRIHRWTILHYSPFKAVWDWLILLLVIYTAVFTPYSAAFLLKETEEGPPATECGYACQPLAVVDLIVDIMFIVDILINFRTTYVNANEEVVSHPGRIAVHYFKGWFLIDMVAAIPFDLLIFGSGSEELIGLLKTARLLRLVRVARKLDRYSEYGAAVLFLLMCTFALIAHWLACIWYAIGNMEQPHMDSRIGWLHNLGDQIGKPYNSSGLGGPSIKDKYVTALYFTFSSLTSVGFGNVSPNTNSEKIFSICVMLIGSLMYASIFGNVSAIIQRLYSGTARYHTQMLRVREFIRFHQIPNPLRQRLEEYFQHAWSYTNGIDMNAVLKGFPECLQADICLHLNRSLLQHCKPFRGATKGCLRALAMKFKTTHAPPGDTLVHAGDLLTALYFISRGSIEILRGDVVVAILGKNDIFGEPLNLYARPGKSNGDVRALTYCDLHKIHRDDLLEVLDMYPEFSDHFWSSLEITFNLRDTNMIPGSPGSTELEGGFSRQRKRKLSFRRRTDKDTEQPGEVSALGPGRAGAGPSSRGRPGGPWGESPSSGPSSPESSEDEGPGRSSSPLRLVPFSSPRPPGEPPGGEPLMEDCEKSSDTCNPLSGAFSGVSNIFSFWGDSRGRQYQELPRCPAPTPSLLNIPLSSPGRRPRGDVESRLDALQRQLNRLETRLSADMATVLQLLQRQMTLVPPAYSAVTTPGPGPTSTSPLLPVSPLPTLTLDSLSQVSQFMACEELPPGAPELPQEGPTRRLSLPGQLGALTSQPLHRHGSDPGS
row,Structure (SMILES),"hERG current change (%, negative = inhibition) at 1uM"
1,CC(=O)N1c2ccc(S(=O)(=O)N3CCC(C(=O)NCCc4ccc(Cl)cc4)CC3)cc2CC1C (centres unmarked),8.92%
2,Cc1cc(C(F)(F)F)nn1CCCNC(=O)c1cnccn1,-11.6%
3,O=C(CN1CCN(S(=O)(=O)c2ccc(Cl)s2)CC1)N1CCOCC1,17%
4,CCN(CC(=O)Nc1ccc(Cl)c(S(=O)(=O)N(C)C)c1)CC(=O)NC(C)C,10.8%
5,Cc1ccc(S(=O)(=O)Nc2ccc3c(c2)nc2n3CCN(Cc3ccccc3)C2)cc1,-0.623%
6,COC(=O)c1cc(-c2c(C)oc3cc(O)ccc3c2=O)c(C)o1,-1.42%
7,O=C(Cn1c(-c2ccccc2)c[n+]2ccsc12)c1ccc([N+](=O)[O-])cc1.[Br-],-9.66%
8,COc1ccc(S(=O)(=O)N2CCOC23CCN(S(=O)(=O)c2ccc(C)cc2)CC3)cc1,12.8%
9,C[C@@H]1NC(=O)N(c2ccc(F)cc2)C1=O,5.66%
10,CCOCCCNC(=O)c1cc(C)nn1-c1ccccc1,14.2%
11,Nc1nnc(SCC(=O)OCC(=O)Nc2ccccc2)s1,6.12%
12,O=C(c1ccccc1C(=O)N1CCN(c2ccccc2F)CC1)N1CCN(c2ccccc2F)CC1,12.8%
13,Cn1cc(SCC(=O)Nc2ccc3c(c2)OCCO3)c2ccccc21,1.96%
14,Cc1ccc(CN2CC3CC(C2)c2cccc(=O)n2C3)cc1 (centres unmarked),10.5%
15,O=C(CCN1CCCCO1)N1CCCC(Nc2cccc(F)c2)C1 (centres unmarked),11.2%
16,Cc1ccccc1OCC(=O)NNC(=S)NC(=O)c1ccco1,8.12%
17,Cc1cccc(NC(=S)NC2CC3CCCC(C2)N3CC(C)C)c1 (centres unmarked),-13.6%
18,Cc1ccc(C(=O)Nc2ccc(C(F)(F)F)n(C)c2=O)cc1,9.37%
19,CSc1nc(Sc2ccc(Cl)cc2)c2ccccc2n1,17.6%

row,Structure (SMILES),"hERG current change (%, negative = inhibition) at 1uM"
1,CC(=O)N1c2ccc(S(=O)(=O)NCCC(=O)N(C)Cc3ccccc3)cc2CC1C (centres unmarked),18.8%
2,Cc1ccc(S(N)(=O)=O)cc1NC(=O)/C=C/c1cccs1,0.562%
3,Cc1cccc(-c2noc(CN(C(=O)c3ccc(Br)o3)C(C)C)n2)c1,12.3%
4,Cc1cc(C[n+]2ccccc2)c2nsnc2c1.[Cl-],12.6%
5,CSc1nc(C)cc(C)c1C#N,2.01%
6,CCC(=O)Nc1cccc(NC(=O)c2ccc3c(c2)OCO3)c1,12.2%
7,CCc1nc2sc3c(c2c(=O)n1N)CC(C)(C)OC3,8.43%
8,Cn1nc(OCCOc2ccccc2)ccc1=O,2.13%
9,COc1ccc(-c2cc(C(=O)Nc3cccc(S(=O)(=O)NCc4ccco4)c3)c3ccccc3n2)cc1OC,12.4%
10,O=C(CCNS(=O)(=O)c1ccccc1)NNC(=O)COc1ccc(Cl)cc1,6.88%
11,Cc1ccc(SCCC(=O)NCCSCc2ccco2)cc1,13.5%
12,CCNC(=O)C1CCCN1S(=O)(=O)c1ccc(OC)cc1 (centres unmarked),15.9%
13,C#CCOCCOCCOCCNc1nc(N2CCN(C(=O)CCCCCCCCCCNC(=O)[C@H]([C@@H](C)CC)n3cc(CCCCCN)nn3)CC2)nc(N2CCN(C(=O)CCCCCCCCCCNC(=O)[C@H](CO)n3cc(CCCCCN)nn3)CC2)n1,7.07%
14,CSC1=NCCN1S(=O)(=O)c1ccc(C)cc1,-1.21%
15,COCC1CCCN(Cc2cn(Cc3ccccc3)nc2-c2cc3ccccc3o2)C1 (centres unmarked),-0.957%
16,Cc1sc2ncnc(NCCCn3ccnc3)c2c1C,-16.7%
17,CCC(C)[C@H](NC(=O)NCCCc1ccccc1)C(=O)OC (some centres unmarked),-8.66%
18,C[N+]1(C2CCC3CCCC2C3O)CCCCC1.[I-] (centres unmarked),9.43%
19,CC(C)[C@H](NC(=O)NCc1ccc(Cl)cc1)C(=O)O,-3.22%

row,Structure (SMILES),"hERG current change (%, negative = inhibition) at 1uM"
1,Cc1cc(OCCCCN2C(=O)NC(C)(C)C2=O)cc(C)c1Cl,3.1%
2,COC(=O)C1=CO[C@@H](C)[C@@H]2CN3CC[C@]4(C(=O)Nc5ccccc54)[C@@H]3C[C@H]12,16%
3,CCN(C(=O)c1cn(C)c(=O)c2cc(OC)c(OC)cc12)c1cc(C)ccc1C,8.54%
4,CCNc1nc(N2CCCCC2)nc(-n2nnc(C(=O)OCC)c2C)n1,-3.97%
5,CCOC(=O)c1sc2ncn(/N=C/c3cccnc3)c(=O)c2c1C,4.29%
6,CC(C)(C)C1c2[nH]c3ccccc3c2CCN1CCCn1cccn1 (centres unmarked),4.68%
7,CC(=O)c1c(C)oc2c1cc(NS(=O)(=O)c1ccc(C(=O)O)cc1)c1ccccc12,12.8%
8,CN(C)CCOc1cccc(Br)c1.O=C(O)C(=O)O,8.19%
9,CN(C)c1ccc(/C=N/NC(=O)c2cccc(N3CCCC3=O)c2)cc1,9.17%
10,NC(=O)Cc1ncc(C(F)(F)F)cc1Cl,8.42%
11,CN(CC(=O)Nc1ccc(Cl)cc1)C(=O)CCC1CCCC1,5.68%
12,CCn1c(SCC(=O)c2ccc(Cl)cc2)nnc1C(C)C,8.32%
13,Cc1nn(C)c(C(=O)Nc2ccc(Cn3cccn3)cc2)c1[N+](=O)[O-],0.851%
14,O=C(Oc1cc(=O)oc2c1c(=O)n1c3c(cccc23)CC1)c1ccccc1,10.1%
15,O=c1cc(N2CCC(Cc3ccccc3)CC2)[nH]c(=O)n1C1CCCCC1,12.8%
16,Cc1ccc(CN2CCN(Cc3ccc4ncccc4c3)CC2CCO)cc1 (centres unmarked),-20.5%
17,O=C(Nc1cccc(Cl)c1)C1C2C=CC3(O2)C1C(=O)N(CCCN1CCCCC1)C3C(=O)NC1CCCCC1 (centres unmarked),8.83%
18,O=C(O)c1cc(-c2ccc(Cl)cc2)n(-c2ccc(Cl)cc2)n1,20.1%
